The list shows a part of the results. For part of these data: At the low end of the ranking the order means little. For part of these data: The protein was read in a cell extract, so binding may be indirect.
What follows are sequences tested against PU.1 (IVT) (UniProt P17947) (assay: protein-binding microarray (PBM)). Settings: 20 mM HEPES pH 7.9, 100 mM NaCl, 1 mM DTT, 0.2 mg/mL BSA, 0.02% Triton X-100, 2% milk, 0.4 mg/mL salmon testes DNA; 1 h; temperature not stated; high values mean tight binding; double strand, one strand shown; sequences stand for … in GCCTAGCAC…GTGCTAGGTCTTGATTCGCTTGACGCTGCTG.

Sequence | binding signal
TGGCAGAGGAAGTGAAACGA | 3.1 z-score
GATAAGAGGAACTGGAAGCT | 3.81 z-score
TAAAGGAGGAACTGAAACCT | 3.48 z-score
TGAGAGAAGAAGTGAAACCT | 0.83 z-score
CTGGCTGGGAACTGAAACTC | 0.155 z-score
CTGGCAGGAAACTGAAACTC | 0.581 z-score
TGAGAGGAGAAGTGAATCCT | 1.46 z-score
CTGCCAGGGAAGGGAAAGCA | -0.0351 z-score
CTCCCAGGGAAGTGAAAGCA | 1.17 z-score
GCTTTAGGGAACTGAAAGCG | 2.82 z-score
TGAGAGGAGAAGTGACACCT | 1.27 z-score
AAAAAGAAGAAGTGAAACTT | 4.4 z-score
TGAAACAGGATGTGAAACCA | 1.33 z-score
GAAAAGAGGAAGCGAAACTG | 6.84 z-score
CTGGCAGGGAACTGAAAATC | 0.701 z-score
GTTAAGAGGAACTGAAAGCT | 3.77 z-score
CTGGCAGGGAACTGATACTC | 0.814 z-score
AAGAAAAGGAAATGAAAGTA | 1.42 z-score
AAAAAAAGGAAATGAAAGTC | 3.65 z-score
AAAAAAAGGAAATGAAAATA | 3.87 z-score

Sequence | binding signal
CTGGCAGGGAACAGAAACTC | 0.453 z-score
TCAGGGAGGAAGTGAAACTG | 3.73 z-score
AAAAAAAGGAAATGATAGTA | 3.36 z-score
CTGCCATGGAAGTGAAAGCA | 0.591 z-score
TCTTTGAGGAAATGAAACCA | 2.2 z-score
GAAAAGAGGAAGAGAAACTG | 5.45 z-score
CAGAATAGGAAGTGAAACTT | 3.98 z-score
GATAAGAGGAACCGAAAGCT | 2.77 z-score
AAAAAAAGGAAATTAAAGTA | 3.65 z-score
CTGCCAGGGATGTGAAAGCA | -0.469 z-score
AAAAAAAGGAAATGAAAGTT | 3.78 z-score
GAAGACAGGAAGTGAAACTT | 3.72 z-score
AAAGAGAGGAAGTGAAACTC | 4.75 z-score
CTGGCACGGAACTGAAACTC | 0.856 z-score
AAAAAAAGGAAATGAAGGTA | 3.57 z-score
TCAGAGGAGAAGTGAAACCT | 1.11 z-score
TGAGAGGCGAAGTGAAACCT | -0.495 z-score
TGAAACAGGAAGTGAAGCCA | 6.24 z-score
ACAAACGGGAAGTGAAAGCT | 5.29 z-score

What follows are sequences tested against T1, FLI1 (endogenous, THP-1 nuclear extract) (UniProt Q01543) (assay: nuclear extract protein-binding microarray (nextPBM)). Settings: 20 mM HEPES pH 7.9, 100 mM NaCl, 1 mM DTT, 0.2 mg/mL BSA, 0.02% Triton X-100, 2% milk, 0.4 mg/mL salmon testes DNA; 1 h; temperature not stated; high values mean tight binding; double strand, one strand shown; sequences stand for … in GCCTAGCAC…GTGCTAGGTCTTGATTCGCTTGACGCTGCTG.
T1 sequence: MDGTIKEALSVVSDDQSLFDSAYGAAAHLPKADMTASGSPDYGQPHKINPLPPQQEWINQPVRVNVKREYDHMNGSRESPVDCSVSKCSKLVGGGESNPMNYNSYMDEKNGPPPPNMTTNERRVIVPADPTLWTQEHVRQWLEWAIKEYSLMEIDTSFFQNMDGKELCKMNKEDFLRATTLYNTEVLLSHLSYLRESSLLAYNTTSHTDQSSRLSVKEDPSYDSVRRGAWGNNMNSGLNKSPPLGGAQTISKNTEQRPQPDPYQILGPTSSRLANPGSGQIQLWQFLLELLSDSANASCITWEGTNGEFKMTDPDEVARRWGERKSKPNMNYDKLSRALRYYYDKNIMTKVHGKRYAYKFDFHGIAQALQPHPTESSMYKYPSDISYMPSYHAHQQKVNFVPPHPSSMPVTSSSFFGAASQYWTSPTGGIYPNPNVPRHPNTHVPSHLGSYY

Sequence | binding signal
TGGCAGAGGAAGTGAAACGA | 2.98 z-score
GATAAGAGGAACTGGAAGCT | 2.31 z-score
TAAAGGAGGAACTGAAACCT | 2.04 z-score
TGAGAGAAGAAGTGAAACCT | 0.145 z-score
CTGGCTGGGAACTGAAACTC | -0.385 z-score
CTGGCAGGAAACTGAAACTC | 2.88 z-score
TGAGAGGAGAAGTGAATCCT | 0.561 z-score
CTGCCAGGGAAGGGAAAGCA | 0.436 z-score
CTCCCAGGGAAGTGAAAGCA | 0.794 z-score
GCTTTAGGGAACTGAAAGCG | 0.855 z-score
TGAGAGGAGAAGTGACACCT | 0.274 z-score
AAAAAGAAGAAGTGAAACTT | 2.15 z-score
TGAAACAGGATGTGAAACCA | 3.89 z-score
GAAAAGAGGAAGCGAAACTG | 4.35 z-score
CTGGCAGGGAACTGAAAATC | -0.0736 z-score
GTTAAGAGGAACTGAAAGCT | 0.989 z-score
CTGGCAGGGAACTGATACTC | -0.127 z-score
AAGAAAAGGAAATGAAAGTA | 2.19 z-score
AAAAAAAGGAAATGAAAGTC | 2.57 z-score
AAAAAAAGGAAATGAAAATA | 2.28 z-score

Sequence | binding signal
CTGGCAGGGAACAGAAACTC | 0.0959 z-score
TCAGGGAGGAAGTGAAACTG | 3.31 z-score
AAAAAAAGGAAATGATAGTA | 2.17 z-score
CTGCCATGGAAGTGAAAGCA | 0.243 z-score
TCTTTGAGGAAATGAAACCA | 2.33 z-score
GAAAAGAGGAAGAGAAACTG | 2.25 z-score
CAGAATAGGAAGTGAAACTT | 3.2 z-score
GATAAGAGGAACCGAAAGCT | 1.51 z-score
AAAAAAAGGAAATTAAAGTA | 2.1 z-score
CTGCCAGGGATGTGAAAGCA | 0.109 z-score
AAAAAAAGGAAATGAAAGTT | 2.83 z-score
GAAGACAGGAAGTGAAACTT | 5.38 z-score
AAAGAGAGGAAGTGAAACTC | 3.71 z-score
CTGGCACGGAACTGAAACTC | 0.695 z-score
AAAAAAAGGAAATGAAGGTA | 2.42 z-score
TCAGAGGAGAAGTGAAACCT | 0.785 z-score
TGAGAGGCGAAGTGAAACCT | -0.311 z-score
TGAAACAGGAAGTGAAGCCA | 5.5 z-score
ACAAACGGGAAGTGAAAGCT | 3.01 z-score

What follows are sequences tested on PU.1 (endogenous, THP-1 nuclear extract) + IRF8 (endogenous, THP-1 nuclear extract) in the same assay as above. Settings: 20 mM HEPES pH 7.9, 100 mM NaCl, 1 mM DTT, 0.2 mg/mL BSA, 0.02% Triton X-100, 2% milk, 0.4 mg/mL salmon testes DNA; 1 h; temperature not stated; high values mean tight binding; double strand, one strand shown; sequences stand for … in GCCTAGCAC…GTGCTAGGTCTTGATTCGCTTGACGCTGCTG.

Sequence | binding signal
TGGCAGAGGAAGTGAAACGA | 4.61 z-score
GATAAGAGGAACTGGAAGCT | 0.706 z-score
TAAAGGAGGAACTGAAACCT | 28.6 z-score
TGAGAGAAGAAGTGAAACCT | 23.7 z-score
CTGGCTGGGAACTGAAACTC | 8.52 z-score
CTGGCAGGAAACTGAAACTC | 15 z-score
TGAGAGGAGAAGTGAATCCT | 0.188 z-score
CTGCCAGGGAAGGGAAAGCA | -0.423 z-score
CTCCCAGGGAAGTGAAAGCA | 4.28 z-score
GCTTTAGGGAACTGAAAGCG | 2.9 z-score
TGAGAGGAGAAGTGACACCT | 0.697 z-score
AAAAAGAAGAAGTGAAACTT | 51.6 z-score
TGAAACAGGATGTGAAACCA | 36.1 z-score
GAAAAGAGGAAGCGAAACTG | 77.1 z-score
CTGGCAGGGAACTGAAAATC | -0.598 z-score
GTTAAGAGGAACTGAAAGCT | 2.53 z-score
CTGGCAGGGAACTGATACTC | 1.41 z-score
AAGAAAAGGAAATGAAAGTA | 9.44 z-score
AAAAAAAGGAAATGAAAGTC | 7.38 z-score
AAAAAAAGGAAATGAAAATA | 0.864 z-score

Sequence | binding signal
CTGGCAGGGAACAGAAACTC | 5.14 z-score
TCAGGGAGGAAGTGAAACTG | 65.8 z-score
AAAAAAAGGAAATGATAGTA | -0.762 z-score
CTGCCATGGAAGTGAAAGCA | 1.6 z-score
TCTTTGAGGAAATGAAACCA | 29.9 z-score
GAAAAGAGGAAGAGAAACTG | 17.6 z-score
CAGAATAGGAAGTGAAACTT | 51.5 z-score
GATAAGAGGAACCGAAAGCT | 19.3 z-score
AAAAAAAGGAAATTAAAGTA | -0.154 z-score
CTGCCAGGGATGTGAAAGCA | 4.06 z-score
AAAAAAAGGAAATGAAAGTT | 7.83 z-score
GAAGACAGGAAGTGAAACTT | 50.9 z-score
AAAGAGAGGAAGTGAAACTC | 50.6 z-score
CTGGCACGGAACTGAAACTC | 11.2 z-score
AAAAAAAGGAAATGAAGGTA | 0.886 z-score
TCAGAGGAGAAGTGAAACCT | 23.7 z-score
TGAGAGGCGAAGTGAAACCT | 17.3 z-score
TGAAACAGGAAGTGAAGCCA | -0.579 z-score
ACAAACGGGAAGTGAAAGCT | 17.6 z-score
